# Assay results reported in the supplement of paper PMC3334620.
# Whole data set: some 33,000 sequences, median “E-score (-0.5 to 0.5)” near -0.053, cut for the highest 2% near 0.37. The list shows a part of the results.
# Target: Hap1 (UniProt P0CE41)
# Assay: PBM E-score (8-mer binding enrichment) (E-score (-0.5 to 0.5)); higher = stronger / more preferred TF binding; most listed sequences are background and not binding sites
# Settings: protein concentration: 200 nM; construct: GST-DNA-binding domain
# Procedure, shortened: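 Universal all-10-mer Agilent arrays, double-stranded by primer extension on fresh or once-stripped slides, were probed with about 100-200 nM GST-tagged yeast transcription factors made by PURExpress. Fluorescent anti-GST detected bound protein, and masliner normalised the scans. E-scores from the Universal PBM Analysis Suite were given to each ungapped eight-base word pooled with its reverse complement.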
# Chain of UniProt P0CE41 (P0CE41 whole entry): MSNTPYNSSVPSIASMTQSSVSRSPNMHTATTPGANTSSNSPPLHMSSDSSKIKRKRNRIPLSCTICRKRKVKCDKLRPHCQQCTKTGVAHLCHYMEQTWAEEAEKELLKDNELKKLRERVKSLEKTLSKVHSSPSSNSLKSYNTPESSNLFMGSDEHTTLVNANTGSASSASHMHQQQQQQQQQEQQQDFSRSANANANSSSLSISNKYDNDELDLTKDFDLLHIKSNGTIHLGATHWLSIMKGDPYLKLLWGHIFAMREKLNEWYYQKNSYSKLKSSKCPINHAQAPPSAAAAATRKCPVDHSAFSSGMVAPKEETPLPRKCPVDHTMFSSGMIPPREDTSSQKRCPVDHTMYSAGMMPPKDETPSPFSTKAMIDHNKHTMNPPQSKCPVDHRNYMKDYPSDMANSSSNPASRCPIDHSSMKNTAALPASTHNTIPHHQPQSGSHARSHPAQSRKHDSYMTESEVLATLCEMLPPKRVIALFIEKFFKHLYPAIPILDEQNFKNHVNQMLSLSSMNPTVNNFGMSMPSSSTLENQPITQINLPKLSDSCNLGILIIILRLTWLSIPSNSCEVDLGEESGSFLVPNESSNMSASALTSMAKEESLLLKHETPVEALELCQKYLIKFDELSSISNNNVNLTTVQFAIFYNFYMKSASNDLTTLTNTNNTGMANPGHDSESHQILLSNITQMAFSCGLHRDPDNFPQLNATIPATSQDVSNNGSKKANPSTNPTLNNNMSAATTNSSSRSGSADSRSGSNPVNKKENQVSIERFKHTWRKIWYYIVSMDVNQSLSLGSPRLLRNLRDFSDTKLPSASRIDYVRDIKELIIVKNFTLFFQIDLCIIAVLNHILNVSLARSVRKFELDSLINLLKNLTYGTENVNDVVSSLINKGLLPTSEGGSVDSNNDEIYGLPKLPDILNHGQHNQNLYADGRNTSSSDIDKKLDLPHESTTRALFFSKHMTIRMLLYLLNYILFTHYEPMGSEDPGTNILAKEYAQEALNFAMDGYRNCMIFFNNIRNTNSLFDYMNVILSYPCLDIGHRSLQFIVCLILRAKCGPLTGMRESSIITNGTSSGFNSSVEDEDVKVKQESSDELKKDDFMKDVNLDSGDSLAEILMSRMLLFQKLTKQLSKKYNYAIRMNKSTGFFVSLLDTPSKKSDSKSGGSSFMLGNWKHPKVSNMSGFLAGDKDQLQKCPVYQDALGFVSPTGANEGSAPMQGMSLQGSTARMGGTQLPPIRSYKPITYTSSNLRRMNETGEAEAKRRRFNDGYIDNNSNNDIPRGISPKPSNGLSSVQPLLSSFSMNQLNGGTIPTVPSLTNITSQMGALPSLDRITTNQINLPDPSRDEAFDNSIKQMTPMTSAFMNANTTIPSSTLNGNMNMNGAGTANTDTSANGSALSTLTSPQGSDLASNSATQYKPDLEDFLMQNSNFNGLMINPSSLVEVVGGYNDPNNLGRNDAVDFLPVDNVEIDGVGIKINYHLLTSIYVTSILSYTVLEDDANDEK
row,Sequence,PBM E-score
1,GCAGCCCA,-0.212
2,AGTTTGGA,-0.274
3,AAAATATA,0.0476
4,ATGCAAGG,-0.12
5,GAGCCAAA,-0.026
6,TCAACTCA,-0.172
7,AATCAGGT,0.0335
8,AAGTTCAA,0.0648
9,AATCTCCC,0.00843
10,AGCTACCA,-0.185
11,GATTTGCC,0.112
12,CTATAAAG,0.00027
13,GACCGTGA,0.0518
14,AAAGCAAA,-0.0867
15,CACCCATC,-0.0437
16,CTGTGGCC,0.0162
17,AGCTGTTC,-0.097
18,AAACAGGT,-0.189
19,CAATTAAG,0.0131
20,ACGAATGG,0.0399
21,AATGCGCT,-0.108
22,CAACGCTA,-0.115
23,CTTTGGGC,0.118
24,CGCAACCA,0.0242
25,GCTAACCC,0.0709

row,Sequence,PBM E-score
1,CCCAGCAA,-0.0975
2,ATAGCTAG,-0.302
3,CGAGAGGA,-0.0655
4,GTCAAGGA,-0.0786
5,CATTGCAG,-0.271
6,CGACGGTA,0.148
7,AGTTGACC,0.234
8,CCAGAGAC,-0.166
9,GATTTCTA,0.203
10,TCATCACA,-0.389
11,GAAGATTA,0.0781
12,AACGAATT,0.0336
13,TAGGTGCA,-0.193
14,ACACAGCT,-0.24
15,CCAACAAA,-0.097
16,AAACCTAA,0.0533
17,ACAGGAAG,-0.141
18,GAAGAACA,0.066
19,GACTCATC,-0.17
20,CAGGTGCC,-0.0661
21,ACGCACGG,0.162
22,ATTCGGTA,0.146
23,GTCGATAA,-0.0382
24,AGATGGAC,-0.0623
25,ACTGAGCA,-0.292

row,Sequence,PBM E-score
1,AAAGAAGT,-0.0547
2,CAACTTGA,0.0376
3,ATGGGGGA,-0.0747
4,CGTGCAGA,-0.137
5,CCGTGTGA,0.0641
6,TCTCGGAA,0.306
7,AATTAAGG,-0.0963
8,CATTCGAG,-0.135
9,AGCCAAAG,-0.282
10,CAGGGAAC,-0.29
11,AAGAACCA,-0.0356
12,AATACGCT,0.0629
13,AATTCAGT,-0.197
14,AAATGTGC,0.115
15,TGCGACCA,-0.0509
16,GGCTCCGA,0.221
17,AATTACAT,0.0504
18,CGGGACAA,0.135
19,CATATGGC,-0.0915
20,ACATGAAA,-0.178
21,CAGATGGC,-0.0975
22,GGTCACTA,-0.0163
23,ATTTGAGG,-0.0763
24,GTTGGTGA,-0.132
25,ATTCGGAC,0.382

row,Sequence,PBM E-score
1,GGCACCAA,0.118
2,GATGTAGA,-0.107
3,AACGCAAC,0.00727
4,ACTAATAT,0.0405
5,ATCGGTCG,0.352
6,GGTCTACA,-0.132
7,AAAGCTCG,0.0753
8,GTAAATGA,-0.0599
9,CTGACTTA,-0.0406
10,ACTTCTCT,-0.183
11,AATTGCCC,0.101
12,CTTACATC,0.0233
13,TACCGTGA,0.0524
14,GAGACGGA,0.242
15,ACTGTCAA,-0.222
16,ATAGAGCG,-0.0445
17,CTTGAGTC,-0.0518
18,ATGGTGCA,-0.214
19,CCAGAACG,-0.0975
20,ACCGGTCA,0.256
21,ATCGCCCG,0.372
22,AGCAGGCT,-0.182
23,CACTGGTA,-0.185
24,CCATCGTC,-0.0344
25,GGTACACC,-0.183

row,Sequence,PBM E-score
1,AATAGAAT,-0.153
2,ATCACTAG,-0.158
3,GTACGCAC,-0.24
4,GAGTCCAA,-0.246
5,CAGCTGTA,-0.062
6,CACCGGTA,0.376
7,TATTCGAA,-0.184
8,CTAGTCCC,-0.233
9,AATGTACT,-0.0181
10,CAACAGAC,-0.15
11,TGACGGCA,-0.0528
12,GTCAACAC,0.00097
13,ACGGCTCG,0.263
14,CAGAAAAC,-0.136
15,GACGGAGC,0.178
16,ACAATCAA,-0.0486
17,CCCTAGCG,-0.291
18,AACGACAA,0.0299
19,AAATGATG,-0.00299
20,CACATTCG,0.0639
21,ATTACCGA,0.348
22,AGTCCACG,0.0474
23,ATCGGTGA,0.214
24,AGATTATC,0.00768
25,AATGCTCA,-0.259

row,Sequence,PBM E-score
1,CCGTTATC,0.385
2,AGCGAAGG,-0.0317
3,CTCCCTAA,-0.155
4,ATGACCGC,0.197
5,CTTTCCGA,0.316
6,CGCGAACA,0.0947
7,AATTGCTC,0.0545
8,ACTGATCA,-0.132
9,CCGCTTTA,0.165
10,GCCCGAAA,0.342
11,ATAGATTA,-0.0571
12,CATCGCAG,-0.142
13,GCCGTCCA,0.0557
14,AGACGCTG,-0.141
15,GGGTGTTA,0.0847
16,GGCTTCCA,-0.0479
17,ATGATAAC,-0.135
18,ATGCAACG,-0.0754
19,AGGTATGA,-0.0537
20,ACAACGTC,0.0546
21,CGCCCCTC,-0.0292
22,CACGGGTC,-0.015
23,GGATTCCA,0.0677
24,GACGGTAC,0.142
25,CACCATGA,0.0355

row,Sequence,PBM E-score
1,ATCACATA,-0.0284
2,CAGATCTA,-0.306
3,GATGAGCC,0.00556
4,GCGTAAGC,-0.106
5,CCGTGTAG,0.0128
6,CAGCTATA,-0.0816
7,ATGCATAG,-0.269
8,CGCTAAGA,0.23
9,CTCAGTCC,-0.097
10,CAACCATA,-0.174
11,CGCGTGCA,-0.101
12,CGAATCAA,0.0153
13,CTGTAGTC,-0.0677
14,ACTAGCAG,-0.265
15,AGCTCTAC,-0.239
16,CCTTGCCA,-0.153
17,ATACTAAG,-0.0852
18,GAATTCCC,0.0182
19,CCGAGAAA,0.4
20,ATGCTGCC,-0.112
21,GAAGCGCA,0.0591
22,GCCTCTAC,-0.12
